Source: the supplement of paper PMC12217912
The other results are listed elsewhere or left out. The full chains were built here from the parent and the listed change. Inactive controls read about 0.05.

B1: TEV protease; numbered along this chain (parent)
chain: MGESLFKGPRDYNPISSSICHLTNESDGHTTSLYGIGFGPFIITNKHLFRRNNGTLVVQSLHGVFKVKDTTTLQQHLVDGRDMIIIRMPKDFPPFPQKLKFREPQREERICLVTTNFQTKSMSSMVSDTSCTFPSGDGIFWKHWIQTKDGQCGSPLVSTRDGFIVGIHSASNFTNTNNYFTSVPKNFMELLTNQEAQQWVSGWRLNADSVLWGGHKVFMVKPEEPFQPVKEATQL

Variants of: B1
Assay: raw area under fraction-flipped curve 0-4 h after induction (AUC4h, not background-subtracted), DNA-recorder readout of cleavage of the substrate (dimensionless); higher = more cleavage of the substrate by the protease variant
Conditions: temperature: 34 °C; time window: 0-4 h after rhamnose induction
Protocol: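 In vivo DNA recorder in E. coli TOP10(DE3) ΔrhaA at 34 °C. Each TEVp single-site mutant (parent TEVp 0) is paired with a single-site variant of the 7-mer TEVs (canonical ENLYFQ|S). The substrate sits between flexible linkers in a Bxb1-sfGFP-TEVs-SsrA fusion, so cleavage stabilises Bxb1 and speeds flipping of a recombination array, read by NGS. The value is the raw area under the fraction-flipped curve over 0-4 h after rhamnose induction (AUC4h), with ≥20 reads per time point. It is not background-subtracted; inactive controls average about 0.047.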
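Further: Bxb1 expression induced with 0.2% (w/v) L-rhamnose at OD600 near 0.5, cultures sampled hourly, flipped fraction per protease–substrate barcode pair counted by paired-end Illumina sequencing.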

| Variant | area with substrate ENLYFQA | area with substrate ENLYFQC | area with substrate ENLYFQD | area with substrate ENLYFQE | area with substrate ENLYFQF | area with substrate ENLYFQG | area with substrate ENLYFQH | area with substrate ENLYFQI | area with substrate ENLYFQL | area with substrate ENLYFQM | area with substrate ENLYFQN | area with substrate ENLYFQP | area with substrate ENLYFQQ | area with substrate ENLYFQR | area with substrate ENLYFQS | area with substrate ENLYFQT | area with substrate ENLYFQW | area with substrate ENLYFQY | area with substrate ENLYFQK | area with substrate ENLYFQV |
| --- | --- | --- | --- | --- | --- | --- | --- | --- | --- | --- | --- | --- | --- | --- | --- | --- | --- | --- | --- | --- |
| H215W | 0.0635 | 0.0438 | 0.061 | 0.0508 | 0.0583 | 0.06 | 0.0625 | 0.0689 | 0.0632 | 0.0639 | 0.0438 | 0.0522 | 0.0542 | 0.0441 | 0.0612 | 0.0521 | 0.0597 | 0.0556 | – | – |
| V217Q | 0.0585 | – | – | – | 0.0548 | 0.0566 | 0.0711 | 0.0426 | 0.0617 | 0.0671 | 0.0725 | – | 0.0719 | 0.0496 | 0.0589 | – | 0.0568 | 0.0651 | 0.0523 | 0.0466 |
| M219E | 0.0858 | 0.0925 | 0.0581 | – | – | 0.0928 | 0.0488 | 0.0512 | 0.0523 | 0.0644 | 0.0589 | 0.0641 | – | 0.0653 | 0.0895 | – | 0.0557 | – | 0.055 | 0.0493 |
| M219V | 0.0984 | 0.167 | 0.0674 | – | – | 0.18 | 0.0792 | 0.0639 | 0.0634 | 0.0774 | – | – | 0.0661 | 0.0617 | 0.107 | – | – | 0.071 | 0.0578 | – |
| V220P | 0.0813 | 0.11 | 0.0631 | 0.0518 | – | 0.086 | 0.0714 | – | 0.061 | 0.0697 | 0.0579 | 0.0549 | 0.0659 | 0.0556 | 0.0853 | 0.0657 | 0.0636 | – | 0.063 | 0.0511 |
| K221I | 0.0856 | 0.103 | – | 0.0604 | – | 0.0926 | – | 0.0508 | 0.06 | 0.0685 | 0.0542 | 0.0789 | – | 0.0633 | 0.094 | 0.0549 | 0.062 | 0.05 | 0.0666 | – |
| P222C | 0.0838 | 0.111 | 0.0595 | – | 0.0626 | 0.0853 | 0.0692 | 0.0738 | 0.0638 | 0.0561 | 0.0699 | 0.0567 | 0.0642 | 0.0275 | 0.0946 | – | 0.0612 | 0.0665 | – | 0.0588 |
| E223T | 0.0977 | – | 0.0814 | – | 0.0448 | 0.0985 | – | – | 0.0589 | 0.0731 | – | 0.0852 | – | 0.0602 | 0.0976 | 0.0601 | 0.0784 | 0.069 | 0.0647 | 0.0553 |
| E224F | 0.0847 | – | – | – | 0.0806 | 0.0761 | 0.0711 | – | 0.0638 | – | – | – | – | – | 0.0886 | 0.0782 | 0.0544 | – | 0.0677 | 0.0403 |
| P225F | 0.0919 | 0.088 | – | – | – | – | – | 0.0549 | – | 0.0818 | 0.0686 | 0.057 | – | 0.0678 | 0.0892 | 0.07 | – | 0.0485 | 0.069 | 0.036 |
| Q227I | 0.0993 | 0.127 | – | 0.0747 | – | 0.106 | 0.0713 | 0.0538 | 0.0678 | 0.0798 | – | – | 0.0531 | 0.0814 | 0.102 | – | 0.0567 | – | 0.0684 | – |
| K230M | 0.116 | 0.091 | – | – | – | 0.0843 | 0.0657 | 0.0643 | 0.0591 | 0.0887 | 0.067 | 0.0692 | 0.0418 | 0.0652 | 0.0976 | – | 0.0651 | 0.0721 | 0.0722 | 0.0701 |
